Screen size: about 390,000 compounds; about 910 (0.23%) were called active. Another 5% or so got no clear call; they are omitted. Calls follow the shape of the dose curve; as a rule, active = well fitted inhibition curve with a large enough effect; inconclusive = small, poorly fitted or top-dose-only effect; inactive = no such curve, though single readings can be large or run the other way. The list shows a part of the results, in another mix than the full data.
% is scaled to controls: 0 for no effect and ±100 for the full control effect; potency is read from the fitted curve at half-maximal effect.

UniProt O94782, sequence (O94782 whole entry, looked up): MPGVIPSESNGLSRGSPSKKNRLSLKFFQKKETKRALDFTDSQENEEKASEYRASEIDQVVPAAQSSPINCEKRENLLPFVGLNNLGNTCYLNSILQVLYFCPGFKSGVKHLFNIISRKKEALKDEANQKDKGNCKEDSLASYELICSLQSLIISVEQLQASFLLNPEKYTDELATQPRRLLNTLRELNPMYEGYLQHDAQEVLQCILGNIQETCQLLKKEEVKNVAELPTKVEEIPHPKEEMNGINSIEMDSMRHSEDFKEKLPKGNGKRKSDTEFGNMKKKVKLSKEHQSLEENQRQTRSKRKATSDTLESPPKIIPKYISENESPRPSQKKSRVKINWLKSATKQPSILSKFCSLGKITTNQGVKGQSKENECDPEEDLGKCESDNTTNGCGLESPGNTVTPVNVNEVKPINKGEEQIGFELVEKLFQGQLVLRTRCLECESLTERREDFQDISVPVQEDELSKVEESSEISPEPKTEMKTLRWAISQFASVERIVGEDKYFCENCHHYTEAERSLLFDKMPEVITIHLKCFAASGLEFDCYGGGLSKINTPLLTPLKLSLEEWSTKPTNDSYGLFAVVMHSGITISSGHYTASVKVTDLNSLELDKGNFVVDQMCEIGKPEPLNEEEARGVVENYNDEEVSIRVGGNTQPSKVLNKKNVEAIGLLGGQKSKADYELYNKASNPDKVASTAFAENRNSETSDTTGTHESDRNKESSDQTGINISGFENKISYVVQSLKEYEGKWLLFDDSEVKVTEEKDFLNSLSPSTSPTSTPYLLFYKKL

This experiment has as its target Ubiquitin carboxyl-terminal hydrolase 1 (Homo sapiens) (UniProt O94782). Put plainly: Inhibitors of USP1/UAF1: Primary Screen. Also: nearly all actives have a fitted effect of over 60% in size. The note with it: recombinant USP1/UAF1, Ub-Rhodamine cleavage fluorescence; activity change, negative = inhibition: at 57.1 µM (top of the series). The source says:
Deubiquitinating enzymes (DUBs) are a class of enzymes that can cleave isopeptide bond formed between the C-terminal carboxylate of ubiquitin and a lysine side-chain amino group on the target protein. Among them, ubiquitin specific proteases (USPs) constitute the largest DUB family. Human USPs are emerging as promising targets for pharmacological intervention because of their connection to a number of human diseases, including prostate, colon and breast cancer (1, 2), pediatric acute lymphoblastic leukemia (3), and familial cylindromatosis (4). The advantage of inhibiting USPs lies in the potential specificity of therapeutic intervention that can lead to better efficacy and reduce nonspecific side effects. In a collaboration between the University of Delaware and the NIH Chemical Genomics Center, a high-throughput screen assay was developed to screen for USP1/UAF1 inhibitors. This miniaturized assay has a fluorescent read-out and is used to screen the NIH Molecular Libraries Small Molecule Repository (MLSMR) in order to identify a small molecule that inhibits USP1. NIH Chemical Genomics Center [NCGC] NIH Molecular Libraries Probe Centers Network [MLPCN] MLPCN Grant: DA030552 Assay Submitter (PI): Zhihao Zhuang, University of Delaware 1. Priolo, C., et al. (2006) The isopeptidase USP2a protects human prostate cancer from apoptosis. Cancer Res 66, 8625-8632 2. Popov, N., et al. (2007) The ubiquitin-specific protease USP28 is required for MYC stability. Nat Cell Biol 9, 765-774 3. De Pitta, C., et al. (2005) A leukemia-enriched cDNA microarray platform identifies new transcripts with relevance to the biology of pediatric acute lymphoblastic leukemia. Haematologica 90, 890-898 4. Kovalenko, A., et al. (2003) The tumour suppressor CYLD negatively regulates NF-kappaB signalling by deubiquitination. Nature 424, 801-805
3 microliters of reagents (buffer in columns 3 and 4 as negative control and 1nM USP1/UAF1 complex in columns 1, 2, and 5-48) are dispensed into Greiner black solid bottom 1536-well assay plates. Compounds are then transferred via Kalypsys pin tool equipped with 1536-pin array (10nl slotted pins, V&P Scientific, San Diego, CA). Following an incubation step of 15 min at room temperature, 1ul of Ub-Rho substrate (150nM final concentration) is added to initiate the reaction. The plates are immediately centrifuged at 1000 rpm for 15 seconds, and subsequently transferred to a ViewLux high-throughput CCD imager (PerkinElmer) wherein kinetic measurements of fluorescence are acquired using 480 nm excitation/540 nm emission filter set (6 reads every 60 seconds, see Table 1). All reagents are diluted in an assay buffer consisting of 50mM HEPES (pH 7.8), 0.5mM EDTA, 0.1 mg/ml BSA, 1mM TCEP, and 0.01% Tween-20.
As for `COc1ccc(S(=O)(=O)N(C)C[C@H]2OCc3cnnn3CCCC(=O)N([C@@H](C)CO)C[C@H]2C)cc1`, the “activity change, negative = inhibition” value is inactive: -13.9%.
Same read-out and setting: the figure for `OCC[C@@H]1C[C@H](O)[C@@H](O)[C@@]2(OCc3ccccc32)O1` is inactive: -25.4%; for `O=C1NC[C@H](c2ccccc2)OC(=O)[C@H](Cc2ccc(F)cc2)C/C=C\C[C@@H]1CC(=O)N(CCO)Cc1ccccc1` it is inactive: -21%; for `COC(=O)c1ccc2nc(C3CCCCC3)c3c(c2c1)CCC3` it is inactive: -6.54%.
On the same count and under the same terms, with `COC(=O)C[C@H]1C[C@@H]2c3cc(NS(=O)(=O)c4cccc(OC)c4)ccc3O[C@@H]2[C@@H](CO)O1` the figure was inactive: -14.6%.
On the same count and under the same terms, with `COc1ccc(-c2nc3ccccc3s2)cc1NC(C)=O` the figure was inactive: -23.4%; with `CCC1CN(C(=O)NCc2ccc(F)cc2)c2ccccc2O1` (configuration not stated), inactive: -19.9%.
Consider `COC(C[C@H]1O[C@H]1[C@@H](O)[C@@H](C)OCc1ccccc1)OC`, for which the “activity change, negative = inhibition” value is inactive: -17.4%.
With `COC(=O)CN1C(=O)S/C(=C/c2ccc(N3CCCCC3)o2)C1=O`, the Potency was active: 28.2 µM.
`C[C@H]1CN([C@@H](C)CO)C(=O)CCCn2nncc2CO[C@H]1CN(C)C(=O)NC1CCCCC1`: the “activity change, negative = inhibition” value was inactive: -23.4%.
The same measure, in the same setting: the figure for `O=C1CC(N2CCC(Cc3ccccc3)CC2)C(=O)N1CCc1ccccc1` (configuration not stated) is inactive: 23.5%; for `COc1ccc(C)cc1NC(=O)CN1C(=O)CSc2ccc(S(=O)(=O)N3CCCC3)cc21` it is inactive: -24.3%.
On the same count and under the same terms, with `O=C1c2c(O)ccc(O)c2C(=O)c2c(NCCNCCO)ccc(NCCNCCO)c21` the figure was inactive: -3.04%.
Same read-out and setting: with `OCC[C@H]1C[C@H](O)[C@@H](O)[C@]2(CCCCO2)O1` the figure was inactive: -9.97%; with `CC(C)(C)OC(=O)C[C@@H]1C/C=C\C[C@@H](CC(=O)N[C@@H](CO)Cc2ccccc2)C(=O)N2CCC[C@@H]2COC1=O`, inactive: -18.1%; with `Cc1cc(C)cc(NC(=O)CCCN2C(=O)COc3ccc(C)cc32)c1`, inactive: 55.1%.
As for `Cc1ccc(O)c(C(=O)c2cc(C#N)c(=O)n(-c3nccs3)c2)c1`, the Potency was active: 17.8 µM.
`COC(=O)[C@@H]1C[C@@H]2CC[C@@H](O)C[C@@H]2N1Cc1ccccc1OS(=O)(=O)c1ccc(C)cc1`: the “activity change, negative = inhibition” value was inactive: -25.2%.
Consider `COc1ccc(NC(=O)C(C)NS(=O)(=O)c2ccc(NC(C)=O)cc2)cc1Cl` (configuration not stated), for which the “activity change, negative = inhibition” value is inactive: 7.97%.
On the same count and under the same terms, with `CCOC(=O)[C@@H]1[C@H]2COc3ccc(Br)cc3[C@H]2N2C(=O)N(c3cccc(F)c3)C(=O)[C@]12C` the figure was inactive: -30.5%.
As for `O=C1NC[C@H](c2ccccc2)OC(=O)[C@H](Cc2ccc(F)cc2)CC/C=C/C[C@H]1CC(=O)N(CCO)Cc1ccccc1`, the “activity change, negative = inhibition” value was inactive: -3.05%.
Still for that read-out and setting: the figure for `C[C@H](CO)N1C[C@H](C)[C@@H](CN(C)Cc2ccc(C(=O)O)cc2)Oc2c(NC(=O)c3ccncc3)cccc2C1=O` is inactive: -7.83%.
Consider `C[C@@H]1CN([C@H](C)CO)C(=O)CCCn2nncc2CO[C@H]1CN(C)C(=O)Nc1cccc2ccccc12`, for which the “activity change, negative = inhibition” value was inactive: -25.8%.
The same measure, in the same setting: the figure for `O=C(C[C@@H]1C/C=C\C[C@H](NC(=O)OCC2c3ccccc3-c3ccccc32)C(=O)OC[C@@H]2CCCN2C1=O)NCCO` is inactive: -0.0737%.
Regarding `N=c1nc(N2CCCCC2)cc(N)n1O`, the “activity change, negative = inhibition” value was inactive: -4.8%.
The same measure, in the same setting: the figure for `CCOC(=O)C1CCN(S(=O)(=O)c2cc(C(=O)OC)n(C)c2)CC1` is inactive: 46.9%; for `CC1CCc2c(sc3nc(-c4cc5ccccc5oc4=O)nc(Cl)c23)C1` (configuration not stated) it is inactive: 43.9%.
As to `COC(=O)N(C)C[C@@H]1OCc2cnnn2CCCC(=O)N([C@@H](C)CO)C[C@H]1C`, the “activity change, negative = inhibition” value is inactive: -10.6%.
The same measure, in the same setting: the figure for `COc1ccc(-c2nnc(SCC(=O)N3CCCCC3)o2)cc1` is inactive: -25.6%; for `Cc1ccc(Nc2ccc([N+](=O)[O-])ccc2=O)cc1` it is inactive: 40.6%; for `C[C@@H]1CN([C@@H](C)CO)C(=O)CCCn2nncc2CO[C@H]1CN(C)C(=O)c1ccc(N2CCN(C)CC2)cc1` it is inactive: -20.3%.
Take `CCOC(=O)[C@@H]1[C@H]2COc3ccc(Br)cc3[C@@H]2N2C(=O)N(c3ccc(C)cc3)C(=O)[C@@]12C`: the “activity change, negative = inhibition” value was inactive: -11.6%.
In the case of `COC(=O)[C@@]12CCCN1[C@H](c1ccc(-c3ccccc3)cc1)[C@H]1C(=O)N(C)C(=O)[C@H]12`, the “activity change, negative = inhibition” value was inactive: -11.4%.
Regarding `Nc1ccc(N(CCO)CCO)cc1`, the Potency was active: 8.91 µM.
In the case of `COc1ccc(C)cc1NC(=O)CN1CCCN(S(=O)(=O)c2ccc(Br)cc2)CC1`, the “activity change, negative = inhibition” value is inactive: -10.7%.
Same read-out and setting: with `CCCCCCN1C[C@H](O)[C@@H](n2cc(-c3ccc(F)cc3)nn2)C[C@@H]1c1ccc(C)cc1` the figure was inactive: -19.8%.
On to `CCc1cccc(CC)c1N(COC)C(=O)Cn1c(C)nc2ccccc21`, for which the “activity change, negative = inhibition” value is inactive: 37.8%.
Still for that read-out and setting: with `O=C(c1cccs1)N1C[C@@H](O)[C@H](n2cc(-c3ccc(F)cc3)nn2)C[C@@H]1c1ccccc1` the figure was inactive: -6.27%; with `NCCCS(=O)(=O)O`, inactive: -13.8%.
Still for that read-out and setting: the figure for `O=C(N1CCCC1)C12CC3CC(CC(C3)C1)C2` is inactive: 28.5%; for `COc1ccc(Oc2nc3c(C)cccn3c(=O)c2/C=C(\C#N)c2nc3ccccc3[nH]2)cc1` it is inactive: 60.4%.
`CCCNC(=O)Cn1c(=O)/c(=C/c2ccc(-c3cccc([N+](=O)[O-])c3)o2)s/c1=C\C(=O)C(C)(C)C`: the “activity change, negative = inhibition” value is inactive: 19.5%.

Values taken from PubChem BioAssay AID743255 (National Center for Advancing Translational Sciences (NCATS), 2014).
